# Experimental data reported in the supplement of paper PMC10723795.
# Counter-ions that a name gives are not always drawn. The list shows a part of the results.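 The calls were made as follows: active = more than 2 SD below the DMSO mean: under 0.85 at 10 µM or 0.885 at 1 µM; inactive = the rest.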 Most values come without repeats; read them as rough.
# System: RPE1
# Test: nucleolar normality score relative to DMSO (fraction of DMSO control); RPE1 is a non-cancer human cell line; higher = more normal nucleoli (less nucleolar stress)
# Conditions: 24 h
# 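Also: fixed cells immunolabelled for nucleolin and UBF, 40 image fields per well in 384-well plates, per-cell score = nucleolin nucleolar/nucleoplasm intensity ratio divided by the matching UBF ratio.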
SMILES,nucleolar normality score (1 µM),nucleolar normality score (10 µM)
CC(=O)OC(C)(C)/C=C/C(=O)[C@](C)(O)[C@H]1[C@H](O)C[C@@]2(C)[C@@H]3CC=C4[C@H](C[C@H](O)C(=O)C4(C)C)[C@]3(C)C(=O)C[C@]12C [Cucurbitacin B],active: 0.486,active: 0.478
CC(=O)OC1C(=O)C2(C)C(O)CC3OCC3(OC(C)=O)C2C(OC(=O)c2ccccc2)C2(O)CC(O)C(C)=C1C2(C)C (configuration not stated) [Baccatin Ⅲ],inactive: 1.05,inactive: 0.889
"COc1ccc(/C=C/c2cc(OC)cc(OC)c2)cc1 [3,4',5-Trimethoxy-trans-stilbene]",inactive: 1.05,inactive: 0.948
N[C@@H](Cc1ccc(N(CCCl)CCCl)cc1)C(=O)O [Melphalan],inactive: 0.958,inactive: 0.952
CC[C@@H](C(=O)[C@@H](C)[C@@H](O)[C@H](C)[C@@H]1O[C@@H]([C@@H](CC)C(=O)O)CC[C@@H]1C)[C@H]1O[C@]2(C=C[C@@H](O)[C@]3(CC[C@@](C)([C@H]4CC[C@](O)(CC)[C@H](C)O4)O3)O2)[C@H](C)C[C@@H]1C [Salinomycin (from Streptomyces albus)],inactive: 1.02,inactive: 0.898
NC(=O)c1cc(N2CC2)c([N+](=O)[O-])cc1[N+](=O)[O-],inactive: 1.02,inactive: 0.989
Cn1cc(C2=C(c3cn(C4CCN(Cc5ccccn5)CC4)c4ccccc34)C(=O)NC2=O)c2ccccc21,inactive: 0.955,inactive: 0.993
C[C@@H]1CC[C@@]2(OC1)O[C@H]1C[C@H]3[C@@H]4CC=C5C[C@@H](O[C@@H]6O[C@H](CO)[C@@H](O[C@@H]7O[C@@H](C)[C@H](O)[C@@H](O)[C@H]7O)[C@H](O)[C@H]6O[C@@H]6O[C@@H](C)[C@H](O)[C@@H](O)[C@H]6O)CC[C@]5(C)[C@H]4CC[C@]3(C)[C@H]1[C@@H]2C [Dioscin],inactive: 1.1,active: 0.24
O=C(O)C(=O)CBr [Bromopyruvic acid],inactive: 1.05,inactive: 1.04
COC(=O)[C@@H](N)CCCNC(=N)N[N+](=O)[O-],inactive: 0.995,inactive: 1.06
CC(C)(C)c1cc(C=C(C#N)C#N)cc(Br)c1O,inactive: 0.99,inactive: 1.08
CC(C)[C@]12O[C@H]1[C@@H]1O[C@]13[C@]1(O[C@H]1C[C@H]1C4=C(CC[C@@]13C)C(=O)OC4)[C@@H]2O [Triptolide (PG490)],active: 0.854,inactive: 0.915
O=C(c1ccccc1O)c1[nH]c(Cl)c(Cl)c1-n1c(C(=O)c2ccccc2O)cc(Cl)c1Cl [Marinopyrrole A (Maritoclax)],inactive: 0.973,inactive: 0.984
Cn1c(CCCC(=O)O)nc2cc(N(CCCl)CCCl)ccc21 [Bendamustine HCl],inactive: 1.03,inactive: 1.09
"O=[N+]([O-])C=Cc1ccc2c(c1)OCO2 [MNS (3,4-Methylenedioxy-β-nitrostyrene, MDBN)]",inactive: 1.07,inactive: 0.921
COc1ccc(N(C(=O)Oc2c(C)cccc2C)c2ccnc(Nc3ccc(N4CCN(C)CC4)cc3)n2)c(OC)c1,inactive: 0.998,inactive: 0.991
COC1=C[C@@H]2[C@@H]3Cc4ccc(OC)c(O)c4[C@]2(CCN3C)CC1=O [Sinomenine hydrochloride],inactive: 0.964,inactive: 0.878
C/C(=C\c1csc(C)n1)[C@@H]1C[C@@H]2O[C@@H]2CCC[C@H](C)[C@H](O)[C@@H](C)C(=O)C(C)(C)[C@@H](O)CC(=O)O1 [Epothilone A],active: 0.693,active: 0.759
CC(O)(CS(=O)(=O)c1ccc(F)cc1)C(=O)Nc1ccc(C#N)c(C(F)(F)F)c1 (configuration not stated) [Bicalutamide],inactive: 1.04,inactive: 1.09
CCN1CCN(C(=O)Cc2ccc(Nc3ncc(F)c(Nc4ccc(C(=O)Nc5ccccc5Cl)cc4)n3)cc2)CC1 [Aurora A Inhibitor I],inactive: 0.949,inactive: 0.943
O=C([O-])C(Cl)Cl.[Na+] [Sodium dichloroacetate (DCA)],inactive: 1.03,inactive: 0.991
CC(C)(C)c1cc(C=C(C#N)C#N)cc(C(C)(C)C)c1O [Tyrphostin 9],inactive: 1.03,inactive: 1.04
O=C(O)c1nn(Cc2ccc(Cl)cc2Cl)c2ccccc12 [Lonidamine],inactive: 1,inactive: 1.06
COc1cc2c(c(OC)c1OC)-c1ccc(OC)c(=O)cc1[C@@H](NC(C)=O)CC2 [Colchicine],inactive: 0.958,inactive: 0.977
CC(=O)O[C@H]1CC[C@@]2(C)C(=CC[C@@H]3[C@@H]2CC[C@]2(C)C(=O)CC[C@@H]32)C1 [Dehydroepiandrosterone acetate],inactive: 0.977,inactive: 0.997
COc1cc([C@@H]2c3cc4c(cc3[C@H](O)[C@H]3COC(=O)[C@H]23)OCO4)cc(OC)c1O [4'-Demethylpodophyllotoxin],inactive: 1.04,inactive: 0.902
